Reference: the supplement of paper PMC7125110
± gives the standard error. For some assays here: This sample is rich in variants without activity.

B1: glmS ribozyme (parent)
chain: AUAAAAGCGCCAGAACUACAGAAAUGUAGUUGACGAGGAGGAGGUUUAUCGAAUUUUCGGCGGAUGCCUCCAAA

What was measured:
Settings in all cases: with glucosamine-6-phosphate
[1] = variants of: B1; experiment: self-cleavage kobs at 160 uM GlcN6P; higher = faster cleavage; RNA array
Procedure, shortened: (§1)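 Barcoded ribozyme variants were transcribed in situ on sequenced MiSeq chips by E. coli RNA polymerase. At 37 °C, a hybridised Cy3 probe tracked them while glucosamine-6-phosphate (40 μM to 10 mM) in HEPES/KCl/Mg(OAc)2 buffer flowed in and tiles were imaged over ~14 h. Per-tile medians of signals normalised to baseline and to non-cleaving reference variants were fit to one- or two-exponential decays, giving kobs. kcat and KM came from weighted Michaelis–Menten fits across concentrations.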

[2] = variants of: B1; experiment: self-cleavage kobs at 2500 uM GlcN6P; higher = faster cleavage; RNA array
Procedure, shortened: as §1

[3] = variants of: B1; experiment: self-cleavage kobs at 10000 uM GlcN6P; higher = faster cleavage; RNA array
Procedure, shortened: as §1

[4] = variants of: B1; experiment: self-cleavage kobs at 640 uM GlcN6P; higher = faster cleavage; RNA array
Procedure, shortened: as §1

| Variant | self-cleavage kobs at 160 uM GlcN6P [1] [s⁻¹] | self-cleavage kobs at 2500 uM GlcN6P [2] [s⁻¹] | self-cleavage kobs at 10000 uM GlcN6P [3] [s⁻¹] | self-cleavage kobs at 640 uM GlcN6P [4] [s⁻¹] |
| --- | --- | --- | --- | --- |
| A6C A36G G40A G60U | < 1e-05 | < 1e-05 |  |  |
| U31C C58U | < 1e-05 | 2.64e-05 ± 1.3e-05 |  |  |
| A14C A39C C71U | < 1e-05 |  |  |  |
| G9C U30A G35U G51C | < 1e-05 | < 1e-05 |  |  |
| C11U C34G G51U | < 1e-05 | < 1e-05 |  |  |
| A33C U47A U56G G60U C71G | < 1e-05 |  |  |  |
| G32C A33U G63U | < 1e-05 |  |  |  |
| G9U U45A C67U | < 1e-05 | < 1e-05 |  |  |
| G7C A48U G60A U65A | < 1e-05 | < 1e-05 |  |  |
| C16U U55C | 0.00153 ± 0.00037 | 0.00585 ± 0.0013 |  |  |
| A33G A48U A52U | < 1e-05 |  |  |  |
| A6U G44U U46G | < 1e-05 |  | < 1e-05 |  |
| G7A A15G U30C U45A | < 1e-05 |  |  |  |
| G32C G40U A42U C61G | < 1e-05 |  |  |  |
| A6C C10G C11U | < 1e-05 | < 1e-05 |  |  |
| A33G C67G C70A | 4.49e-05 ± 2.2e-05 |  |  |  |
| C8U A33G C34G A36U U65C | < 1e-05 | < 1e-05 |  |  |
| G29U A42C C71U | < 1e-05 | < 1e-05 |  |  |
| G7A A36U U47A A64G C67G | < 1e-05 |  | < 1e-05 |  |
| U65A C70G | 5.95e-05 ± 1.2e-05 | 7.95e-05 ± 1e-05 | 7.32e-05 ± 7.6e-06 | 7.89e-05 ± 1e-05 |
| A14C A39U U56A G63U | < 1e-05 |  |  |  |

| Variant | self-cleavage kobs at 160 uM GlcN6P [1] [s⁻¹] | self-cleavage kobs at 2500 uM GlcN6P [2] [s⁻¹] | self-cleavage kobs at 10000 uM GlcN6P [3] [s⁻¹] | self-cleavage kobs at 640 uM GlcN6P [4] [s⁻¹] |
| --- | --- | --- | --- | --- |
| A12G U31G U46C G51A | < 1e-05 | < 1e-05 |  |  |
| G7U A52G C70G | < 1e-05 |  |  |  |
| G7C C8U A15G G35A | < 1e-05 | < 1e-05 |  |  |
| C8G A39U U69A | < 1e-05 |  |  |  |
| G32C G66A | < 1e-05 |  |  |  |
| G9A U69G | < 1e-05 |  |  |  |
| A15C U31C G38A | < 1e-05 |  |  |  |
| G9C A14G G59U | < 1e-05 |  |  |  |
| C61G U69C C70G | 5.95e-05 ± 2.1e-05 | 8.71e-05 ± 4.1e-05 |  | 6.36e-05 ± 2.5e-05 |
| U31A G44U A52U | < 1e-05 | < 1e-05 |  |  |
| C16A A48G A52G A53G U57C | < 1e-05 |  |  |  |
| G13U G32U A33C U57A | < 1e-05 |  |  |  |
| G7A G38U G44C U49A A53U U56C | < 1e-05 |  |  |  |
| A14U A15G G37C A64G | < 1e-05 |  |  |  |
| C8G G60A C61A | < 1e-05 | < 1e-05 | < 1e-05 |  |
| C8U G9C G62A U65G | < 1e-05 | < 1e-05 |  |  |
| C8G A33U G40U C68U | < 1e-05 | < 1e-05 |  |  |
| A6U U49A G62A | < 1e-05 | < 1e-05 |  |  |
| A12C G37A C58A | < 1e-05 |  |  |  |
| A33G G38A G40A | < 1e-05 | < 1e-05 | < 1e-05 |  |
| U31A C58A U65C | < 1e-05 |  |  |  |

| Variant | self-cleavage kobs at 160 uM GlcN6P [1] [s⁻¹] | self-cleavage kobs at 2500 uM GlcN6P [2] [s⁻¹] | self-cleavage kobs at 10000 uM GlcN6P [3] [s⁻¹] | self-cleavage kobs at 640 uM GlcN6P [4] [s⁻¹] |
| --- | --- | --- | --- | --- |
| C8G G9A C50U | < 1e-05 | < 1e-05 | < 1e-05 |  |
| G7A C8A U49G | < 1e-05 | < 1e-05 | < 1e-05 |  |
| C67G C68U | 2.51e-05 ± 1e-05 | 6.33e-05 ± 6e-06 | 6.92e-05 ± 6.7e-06 | 5.35e-05 ± 6.6e-06 |
| G9A C50U G51U A52U | < 1e-05 |  |  |  |
| G9A G38A U55A C68U | < 1e-05 | < 1e-05 |  |  |
| C11A G38C U47G U55C | < 1e-05 | < 1e-05 |  |  |
| C19A G44U | < 1e-05 |  |  |  |
| G60U U69A |  | < 1e-05 | < 1e-05 | < 1e-05 |
| G29U U57G | < 1e-05 |  |  |  |
| C8U G41A C67A | < 1e-05 | < 1e-05 |  |  |
| G9A A33U | < 1e-05 |  |  |  |
| A12U A15G A42C | < 1e-05 |  |  |  |
| G32C U47G | < 1e-05 |  |  |  |
| G29U C34U G63U C68U C70A | < 1e-05 |  |  |  |
| U30C G43U | < 1e-05 | < 1e-05 | < 1e-05 |  |
| C61G A64G C71G |  |  |  | 0.000141 ± 3.7e-05 |
| G9A A33G G41U | < 1e-05 | < 1e-05 |  |  |
| A6G U69C | < 1e-05 |  | 2.56e-05 ± 1e-05 |  |
| C11A C16A | < 1e-05 |  |  |  |
